The BET-seq Pho4 binding data (Le et al. 2018)
The other results are listed elsewhere or left out. These are noisy estimates, calculated here from bound and input reads.

Each sequence was assayed against T1, Pho4 (S. cerevisiae) (UniProt P07270) (assay: relative binding free energy (BET-seq); higher = weaker binding). Conditions: reference: library average.
T1 sequence: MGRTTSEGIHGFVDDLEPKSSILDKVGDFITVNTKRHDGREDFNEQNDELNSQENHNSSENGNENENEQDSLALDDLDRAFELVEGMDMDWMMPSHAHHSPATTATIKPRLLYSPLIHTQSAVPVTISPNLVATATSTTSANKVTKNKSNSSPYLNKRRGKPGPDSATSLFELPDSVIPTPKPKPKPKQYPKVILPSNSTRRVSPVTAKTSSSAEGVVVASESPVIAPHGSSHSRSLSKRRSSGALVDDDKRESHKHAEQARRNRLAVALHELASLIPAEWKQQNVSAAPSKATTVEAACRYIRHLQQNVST

Sequence	relative binding free energy
CTGAGCACGTGGAGAG	0 kcal/mol
GTAGGCACGTGGATGG	-0.07 kcal/mol
CAGGGCACGTGTGTGG	-0.06 kcal/mol
AATTACACGTGCGTAT	0.15 kcal/mol
TAATTCACGTGAGTAG	0.49 kcal/mol
TTCGTCACGTGTCAAG	0.18 kcal/mol
GGGTGCACGTGAGTGC	0.29 kcal/mol
AGTTTCACGTGAGGAA	0.48 kcal/mol
GTTATCACGTGGGAGA	0.13 kcal/mol
TTTATCACGTGTCAGT	0.3 kcal/mol
GTAGTCACGTGCATGG	0.21 kcal/mol
TAGGTCACGTGGGTTC	0.05 kcal/mol
CGAGGCACGTGGATTG	-0.09 kcal/mol
TGGAGCACGTGTGGAA	0.1 kcal/mol
ATGCGCACGTGTTTGG	-0.09 kcal/mol
TGGTGCACGTGCAATA	-0.05 kcal/mol
GGTGCCACGTGTAGTG	0.05 kcal/mol
GTGTGCACGTGGACTG	0.08 kcal/mol
TAGTTCACGTGTAAAG	0.26 kcal/mol
TGAGTCACGTGATAGT	0.16 kcal/mol
AATGGCACGTGGGTGG	-0.23 kcal/mol
GTGGTCACGTGGCGTG	-0.01 kcal/mol
TGATTCACGTGTATTA	0.32 kcal/mol
TGTATCACGTGAAGGA	0.21 kcal/mol
AAGGACACGTGTATAG	0.08 kcal/mol

Sequence	relative binding free energy
CTGGGCACGTGAGTGG	0.12 kcal/mol
TAATTCACGTGAAGGG	0.48 kcal/mol
GGGTACACGTGTGGGA	0.17 kcal/mol
GTTCACACGTGGCGTT	0.11 kcal/mol
AATATCACGTGATGTT	0.32 kcal/mol
TATCACACGTGGTGTT	0 kcal/mol
TGTGGCACGTGTCAAG	-0.21 kcal/mol
TAGGCCACGTGTTCGT	-0.04 kcal/mol
GGGGACACGTGGAATA	0.23 kcal/mol
GGGAACACGTGGGTGG	-0.04 kcal/mol
TAGTGCACGTGGGTAC	-0.11 kcal/mol
TCTATCACGTGAATGT	0.3 kcal/mol
AGAGGCACGTGGTGAC	-0.19 kcal/mol
TTATGCACGTGATTTG	0.1 kcal/mol
TTTTCCACGTGGTATA	-0.04 kcal/mol
TTGCTCACGTGCAGGG	0.23 kcal/mol
TTGAACACGTGTAGTT	-0.04 kcal/mol
ATTATCACGTGTAGCG	0.11 kcal/mol
GATGTCACGTGGATGG	0.15 kcal/mol
TGTGGCACGTGGGTTT	-0.21 kcal/mol
ATTCACACGTGGTGGG	-0.07 kcal/mol
AAAGTCACGTGGTCGT	0.06 kcal/mol
GATTACACGTGAGAGT	0.29 kcal/mol
TACTTCACGTGGTGGA	0.13 kcal/mol
AATTGCACGTGGAGGT	0.03 kcal/mol

Sequence	relative binding free energy
TTTGACACGTGCCGGT	-0.12 kcal/mol
TGGGTCACGTGGGTAA	0 kcal/mol
GTACACACGTGGAGGT	0 kcal/mol
GTTAACACGTGATATT	0.21 kcal/mol
TTTTTCACGTGCAGTG	0.34 kcal/mol
GAACGCACGTGGGGTG	-0.26 kcal/mol
CTTGGCACGTGTCAGG	-0.16 kcal/mol
GTTCGCACGTGGTTAA	0.02 kcal/mol
GGATGCACGTGGGGCC	-0.08 kcal/mol
TGTGGCACGTGGCGAA	-0.07 kcal/mol
AAGGCCACGTGTGGTT	0 kcal/mol
AATGGCACGTGAGGGA	0.09 kcal/mol
GTTATCACGTGAGGTG	0.37 kcal/mol
ATAGGCACGTGTTAGC	-0.09 kcal/mol
CTTGGCACGTGTAATG	0.02 kcal/mol
GTCTACACGTGCTGGG	0.23 kcal/mol
GAGGACACGTGTTTAA	0.31 kcal/mol
GATGTCACGTGGAGGT	0.14 kcal/mol
AGTTACACGTGGTTTA	0.06 kcal/mol
CGATACACGTGTGTGT	-0.08 kcal/mol
GTGCGCACGTGTTAGG	-0.08 kcal/mol
GGAGGCACGTGGTTGC	-0.13 kcal/mol
TCGTTCACGTGAAGGG	0.45 kcal/mol
TAAGTCACGTGGTGGA	0.09 kcal/mol
TTCGGCACGTGCTGGG	-0.09 kcal/mol

Sequence	relative binding free energy
TTATTCACGTGGAAGG	0.35 kcal/mol
CGATACACGTGTTTGT	0 kcal/mol
CGGTTCACGTGTGTGG	0.29 kcal/mol
TTCGCCACGTGTTTTG	0 kcal/mol
AGGGTCACGTGATGCA	0.09 kcal/mol
CTGTGCACGTGGTTAG	-0.08 kcal/mol
TTAGTCACGTGTGGAT	0.17 kcal/mol
GGGATCACGTGATCGG	0.34 kcal/mol
TATTACACGTGTTGTA	0.19 kcal/mol
GCTGACACGTGGAGGG	0.14 kcal/mol
CCTTTCACGTGTGGGG	0.35 kcal/mol
TGATTCACGTGGGCAT	0.16 kcal/mol
TGGAGCACGTGAATGA	0.21 kcal/mol
ACGTTCACGTGGGGAG	0.18 kcal/mol
GGATGCACGTGGATTA	0.01 kcal/mol
TTGTCCACGTGGGTTT	0.04 kcal/mol
CTTGGCACGTGATGGT	0.03 kcal/mol
GGGGACACGTGCCTGG	-0.08 kcal/mol
ATGGTCACGTGTGATC	0.19 kcal/mol
CGTTTCACGTGGTGAT	0.12 kcal/mol
GGCGTCACGTGGGGGT	0.04 kcal/mol
GGGGGCACGTGTATCG	0.04 kcal/mol
GTGCTCACGTGGTTTG	0.22 kcal/mol
GGGAACACGTGCGGTT	-0.07 kcal/mol
GTGCTCACGTGGTGCT	0.24 kcal/mol

Sequence	relative binding free energy
ATTTGCACGTGCTGTG	-0.06 kcal/mol
AAGTTCACGTGTTCGT	0.26 kcal/mol
TTTTGCACGTGGACAG	-0.17 kcal/mol
GCGTTCACGTGTGGGG	0.37 kcal/mol
GTAGTCACGTGCGGTT	0.19 kcal/mol
GGCATCACGTGGGTGA	0.06 kcal/mol
GGCGGCACGTGAGAGT	0.31 kcal/mol
GTGTTCACGTGATTTA	0.43 kcal/mol
AGTAACACGTGATGTA	-0.01 kcal/mol
TCTTGCACGTGTTTGA	-0.1 kcal/mol
GGTGACACGTGCGCTG	-0.03 kcal/mol
GGGACCACGTGGGTAT	-0.16 kcal/mol
ATTGACACGTGTGACG	0.09 kcal/mol
GAGTTCACGTGGGTTG	0.2 kcal/mol
TAGGGCACGTGCGCTG	-0.27 kcal/mol
GTTAGCACGTGTTAGA	0.01 kcal/mol
CTATTCACGTGTGTGT	0.18 kcal/mol
TCAGACACGTGGTGTA	-0.13 kcal/mol
TATGTCACGTGGCCTT	-0.02 kcal/mol
CATTTCACGTGTAGTG	0.17 kcal/mol
AGGGGCACGTGTAGGA	-0.06 kcal/mol
GGCTGCACGTGTATGT	-0.09 kcal/mol
GCTATCACGTGTTAGG	0.33 kcal/mol
TCGTTCACGTGAGGGT	0.49 kcal/mol
TATTACACGTGGGCAG	0.12 kcal/mol

Sequence	relative binding free energy
TCTTGCACGTGGGTCG	-0.16 kcal/mol
GGTTACACGTGCGATG	0.17 kcal/mol
AGTGGCACGTGAGCCG	0.11 kcal/mol
GTTAACACGTGTATGA	0.03 kcal/mol
TTATACACGTGGATTT	0.05 kcal/mol
GACTACACGTGTGTGG	0.27 kcal/mol
TCATTCACGTGCAGGG	0.31 kcal/mol
TAATGCACGTGGCTGT	-0.18 kcal/mol
TTTGCCACGTGAGGTG	0.11 kcal/mol
GCGGCCACGTGTGTGT	-0.14 kcal/mol
GGGCGCACGTGCGGTG	-0.06 kcal/mol
GCTGGCACGTGGGTGC	-0.2 kcal/mol
TGAAGCACGTGCTTTT	-0.04 kcal/mol
GTAGGCACGTGGCGTC	-0.26 kcal/mol
TGCTTCACGTGCGGGG	0.24 kcal/mol
AGTCGCACGTGGAAGG	-0.06 kcal/mol
GAAGACACGTGGGGAT	-0.01 kcal/mol
GGTGACACGTGGTTCA	0.19 kcal/mol
ATATGCACGTGTATGG	-0.15 kcal/mol
TGATTCACGTGAGAGA	0.42 kcal/mol
TCGGTCACGTGTGATA	0 kcal/mol
